# Measurements taken from PMC9911399, “Two distinct binding modes provide the RNA-binding protein RbFox with extraordinary sequence specificity”.
# Residue numbers refer to the chain shown, from its start. This is one part of the list.
# T1: RBFOX1 RRM (Homo sapiens, UniProt Q9NWB1 109-208)
# T1 sequence: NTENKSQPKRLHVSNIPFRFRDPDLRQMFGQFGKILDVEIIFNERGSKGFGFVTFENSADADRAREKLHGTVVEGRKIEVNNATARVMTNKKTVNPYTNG
# B1: UUAAAAU (DNA:RNA)
# RNA: GGGAGACCGGAAUUCAGAUUGUCCUUAAAAUUUAAAUCCCGUCGUAGCCACCA
# DNA 1: CAATCTGAATTCCGGTCTCCC
# DNA 2: TGGTGGCTACGACGGGATT
# B2: AAGGUGC (DNA:RNA)
# RNA: GGGAGACCGGAAUUCAGAUUGUCCAAGGUGCUUAAAUCCCGUCGUAGCCACCA
# DNA 1: CAATCTGAATTCCGGTCTCCC
# DNA 2: TGGTGGCTACGACGGGATT
# B3: AAAAAGU (DNA:RNA)
# RNA: B1 RNA with U25A, U26A, A30G
# DNA 1: CAATCTGAATTCCGGTCTCCC
# DNA 2: TGGTGGCTACGACGGGATT
# B4: AAACAGC (DNA:RNA)
# RNA: B2 RNA with G27A, G28C, U29A
# DNA 1: CAATCTGAATTCCGGTCTCCC
# DNA 2: TGGTGGCTACGACGGGATT
# B5: CUACUAC (DNA:RNA)
# RNA: B1 RNA with U25C, A28C, A29U, U31C
# DNA 1: CAATCTGAATTCCGGTCTCCC
# DNA 2: TGGTGGCTACGACGGGATT
# B6: CGGUGGA (DNA:RNA)
# RNA: B2 RNA with A25C, A26G, G28U, U29G, C31A
# DNA 1: CAATCTGAATTCCGGTCTCCC
# DNA 2: TGGTGGCTACGACGGGATT
# B7: AUACCUC (DNA:RNA)
# RNA: B2 RNA with A26U, G27A, G28C, U29C, G30U
# DNA 1: CAATCTGAATTCCGGTCTCCC
# DNA 2: TGGTGGCTACGACGGGATT
# B8: GAGAGAG (DNA:RNA)
# RNA: B2 RNA with A25G, G28A, U29G, G30A, C31G
# DNA 1: CAATCTGAATTCCGGTCTCCC
# DNA 2: TGGTGGCTACGACGGGATT
# B9: UCUUUCU (DNA:RNA)
# RNA: B1 RNA with U26C, A27U, A28U, A29U, A30C
# DNA 1: CAATCTGAATTCCGGTCTCCC
# DNA 2: TGGTGGCTACGACGGGATT
# B10: AGGCUCA (DNA:RNA)
# RNA: B2 RNA with A26G, G28C, G30C, C31A
# DNA 1: CAATCTGAATTCCGGTCTCCC
# DNA 2: TGGTGGCTACGACGGGATT
# B11: AGAUCCU (DNA:RNA)
# RNA: B1 RNA with U25A, U26G, A28U, A29C, A30C
# DNA 1: CAATCTGAATTCCGGTCTCCC
# DNA 2: TGGTGGCTACGACGGGATT
# B12: UGGUUCA (DNA:RNA)
# RNA: B2 RNA with A25U, A26G, G28U, G30C, C31A
# DNA 1: CAATCTGAATTCCGGTCTCCC
# DNA 2: TGGTGGCTACGACGGGATT
# B13: CGACAGC (DNA:RNA)
# RNA: B2 RNA with A25C, A26G, G27A, G28C, U29A
# DNA 1: CAATCTGAATTCCGGTCTCCC
# DNA 2: TGGTGGCTACGACGGGATT
# B14: GGCGCUG (DNA:RNA)
# RNA: B2 RNA with A25G, A26G, G27C, U29C, G30U, C31G
# DNA 1: CAATCTGAATTCCGGTCTCCC
# DNA 2: TGGTGGCTACGACGGGATT
# B15: CAGAUAA (DNA:RNA)
# RNA: B2 RNA with A25C, G28A, G30A, C31A
# DNA 1: CAATCTGAATTCCGGTCTCCC
# DNA 2: TGGTGGCTACGACGGGATT
# B16: CGAUGAG (DNA:RNA)
# RNA: B1 RNA with U25C, U26G, A28U, A29G, U31G
# DNA 1: CAATCTGAATTCCGGTCTCCC
# DNA 2: TGGTGGCTACGACGGGATT
# B17: CCUCUAC (DNA:RNA)
# RNA: B2 RNA with A25C, A26C, G27U, G28C, G30A
# DNA 1: CAATCTGAATTCCGGTCTCCC
# DNA 2: TGGTGGCTACGACGGGATT
# B18: CAGGCAC (DNA:RNA)
# RNA: B2 RNA with A25C, U29C, G30A
# DNA 1: CAATCTGAATTCCGGTCTCCC
# DNA 2: TGGTGGCTACGACGGGATT
# B19: ACCUUCG (DNA:RNA)
# RNA: B2 RNA with A26C, G27C, G28U, G30C, C31G
# DNA 1: CAATCTGAATTCCGGTCTCCC
# DNA 2: TGGTGGCTACGACGGGATT
# B20: AUCACUG (DNA:RNA)
# RNA: B1 RNA with U25A, A27C, A29C, A30U, U31G
# DNA 1: CAATCTGAATTCCGGTCTCCC
# DNA 2: TGGTGGCTACGACGGGATT
# Molecular target: T1, RBFOX1 RRM
# Experiment: EMSA; HiTS-Eq, 1 nM pool, 10 min; buffer printed only for the single-RNA assays: 10 mM Tris pH 7.5, 150 mM NaCl, 3.4 mM EDTA, 0.001% NP-40, 30 C
# Conditions: tags: His6 N-terminal (pET28a); label: 5' 32P
# Method in brief: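 Purified RbFox RRM (wild type or mutant) was equilibrated for 10 min in 50 µL with 1 nM of a 5′-radiolabelled pool of RNA with 7 randomized nucleotides, its flanks annealed to DNA oligonucleotides, across increasing protein concentrations. Free RNA was separated by 8% native PAGE, excised, reverse-transcribed, PCR-barcoded and sequenced on an Illumina HiSeq 2500. Relative association constants came from read-count changes of each variant against the control reaction, normalised to the cognate motif.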
row,Binder,binding signal
1,B1,0.00292 KA relative to UGCAUGU
2,B2,0.0145 KA relative to UGCAUGU
3,B3,0.000744 KA relative to UGCAUGU
4,B4,0.00137 KA relative to UGCAUGU
5,B5,0.00199 KA relative to UGCAUGU
6,B6,0.00825 KA relative to UGCAUGU
7,B7,0.000578 KA relative to UGCAUGU
8,B8,0.0147 KA relative to UGCAUGU
9,B9,0.0113 KA relative to UGCAUGU
10,B10,0.0101 KA relative to UGCAUGU
11,B11,0.00532 KA relative to UGCAUGU
12,B12,0.0134 KA relative to UGCAUGU
13,B13,0.0101 KA relative to UGCAUGU
14,B14,0.0174 KA relative to UGCAUGU
15,B15,0.000443 KA relative to UGCAUGU
16,B16,0.0186 KA relative to UGCAUGU
17,B17,0.00294 KA relative to UGCAUGU
18,B18,0.0109 KA relative to UGCAUGU
19,B19,0.00839 KA relative to UGCAUGU
20,B20,0.00284 KA relative to UGCAUGU
